For this series the following is noted: repeated cycles of freezing/thawing.

B1: SdcA: SidC paralogue SdcA (72% identity on an amino acid level), GenBank AY504674 (protein)
chain: VMNMVDKIKFKEPERCEYLHIAKDNKVHILLPIVGGDEIGLDNTCETTGELLTFFYGKTHGGTKYSAEHHLNEYKKNLEDDIKAIGVQRKISPNAYEDLLKEKKERLEQIEKYIDLIKVLKEKFDEQREIDKLRTEGIPQLPSGVKEVIKSSENAFALRLSPDRPDSFTRFDDPLFSLKRNRSQYEAGGYQRATDGLGARLRSELLPPDKDTPIVFNKKSLKDKIVDSVLVQLDKDFNTKDGDRGQKFEDIKKLVLEEYKKIDSELQVDEDTYHQPLNLDYLENIACTLDDNSTAKDWVYGIIGATTEADYWPKKESESGTEKVSVFYEKQKEIKFESDTNTMSIKVQYLLAEINFYCKTNKLSDANFGEFFDKEPHATEVAKRVKEGLVQGAEIEPIIYNYINSHHAELGLTSELSSKQQEEITEKFTQRYHIIENSPHFDEFFVADPDKKGNIFSHQGRMSCHFLDFFARQTKGKYPLGDLAGHQEALQAGTSNRLHHKNEVVAQGYEKFDQFKKEVVKLLAESKPKELLDYLVATSPTGVPNYSMLSKETQNYIAYNRNWPAIQKELEKTTDIPENQKQDLLRLLSRNNLQHENLSAITWSKYSSKPLLDVELNKIAEGLDLTAKIYNEKRKSEWFKGSRNEARKTQCEELQRVSQEINALLQSESLTKSQVLEKVLNSIEALDKIDRDISAEYNLFKSTLQKEVQSFRDQLKDICQLDNYAFKSTKLDEIISLEMEEQFQMIKDPAVQQIVRDLPSHCHNNEVIEFFMTLNPEEAAKVASYLSLEYRELNKSTDKKTLLEQDIPKLFKEVNMELLSQLKQDSAVKEDVYEKFCQLADKIPPEHFTRNNIRKWSANPEKLEESNLGELLKSSEGSITEMARKYRETINEMTGRNESLRETVRNTI
modifications: L. pneumophila
For the molecule B1, the “stability / PI(4)P-binding after cycles of shock freezing and thawing” value is “stable and robustly bind PI(4)P even after cycles of shock freezing and thawing”.

The record behind these values is patent publication US7629130B2 (priority 2005, dated 2009).
